Reference: the supplement of paper PMC10600219
Where a name gives a salt, the structure may show the parent alone. Whole data set: some 2,800 compounds, median “cell viability relative to vehicle” near 0.98, cut for the lowest 2% near 0.45. This is one part of the list.

tested on: NCI-H2228 alectinib-DTP; test: cell viability relative to vehicle (fraction of vehicle); NCI-H2228 is an ALK-positive lung cancer line and DTP means drug-tolerant persister; higher = less growth inhibition; settings: 100 nM; treatment time 6 days
Method in brief: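 The 3114-agent TargetMol anti-cancer compound library was tested at 100 nM for 6 days on parental NCI-H2228 cells and on persister cells derived with 1000 nM of a targeted drug for 13 days. ATP readout by the CellTiter-Glo 3D Cell Viability Assay gave cell viability relative to DMSO vehicle-treated cells.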

| SMILES | cell viability |
| --- | --- |
| CCCCCCCCCCCC1=C(O)C(=O)C=C(O)C1=O [Embelin] | 1.02 |
| CCOCc1nc2c(N)nc3ccccc3c2n1CC(C)(C)O [Resiquimod] | 1.15 |
| NC(=O)NC1NC(=O)NC1=O (stereo unspecified) [Allantoin] | 0.891 |
| O=C(O)CNC(=O)c1nc(Cl)c2ccccc2c1O | 1.1 |
| O=C1CCc2ccc(OCCCCN3CCN(c4cccc(Cl)c4Cl)CC3)cc2N1 [Aripiprazole] | 0.934 |
| CN(C)CCOC(c1ccc(Cl)cc1)c1ccccn1 (stereo unspecified) [Carbinoxamine Maleate Salt] | 0.925 |
| Cc1ccccc1C(OCCN(C)C)c1ccccc1 (stereo unspecified) [Orphenadrine hydrochloride] | 1.01 |
| Cc1ccc(/C=C2\CNC/C(=C\c3ccc(C)cc3)C2=O)cc1 | 0.951 |
| O=C1C(O)=C([C@H]2CC[C@H](c3ccc(Cl)cc3)CC2)C(=O)c2ccccc21 [Atovaquone] | 0.892 |
| Cc1nn(C)c2c1C(c1ccc(C(F)(F)F)cc1)C(C#N)=C(N)O2 (stereo unspecified) | 0.836 |
| CNCc1cc(-c2ccccc2F)n(S(=O)(=O)c2cccnc2)c1 [Vonoprazan fumarate] | 1.01 |
| Cc1cc(Nc2cc(N3CCN(C)CC3)nc(/C=C/c3ccccc3)n2)n[nH]1 | 0.731 |
| COCCOc1ccc2c(c1)ncn2-c1ccc2cccc(N3CCC(N)CC3)c2n1 | 1.18 |
| CCCC(=O)[O-].[Na+] [Sodium butanoate] | 1.02 |
| COc1ccc(C2CC(c3ccccc3)=NN2c2ccc(S(N)(=O)=O)cc2)cc1 (stereo unspecified) | 0.916 |
| Cc1cc(-c2ccc(CC(=O)Nc3ccc(-c4cccnc4)cc3)cc2)ccn1 | 0.911 |
| COC(=O)C1=C(C)NC(C)=C(C(=O)OCCN(C)Cc2ccccc2)C1c1cccc([N+](=O)[O-])c1 (stereo unspecified) [Nicardipine hydrochloride] | 0.983 |
| CC1(C)CNc2cc(NC(=O)c3cccnc3NCc3ccncc3)ccc21 [Motesanib] | 0.93 |
| COc1ccc(N2C(=O)/C(=C\c3ccc([N+](=O)[O-])s3)SC2=S)cc1 | 0.888 |
| COc1ccc2cc(OCC3(C(=O)O)CN(C(=O)c4ccc(F)cc4)C3)ccc2c1 | 0.926 |
| Oc1cc(O)c(Cl)cn1 [Gimeracil] | 1.1 |
| CC(C)c1ccc(NC(=O)c2cccs2)c(-c2nc3ccccc3[nH]c2=O)c1 | 1.07 |

| SMILES | cell viability |
| --- | --- |
| CC(O)(P(=O)(O)O)P(=O)(O)O [Etidronate] | 1.11 |
| CC(O)(P(=O)(O)O)P(=O)(O)O [Sodium etidronate] | 1.06 |
| O=C1[C@H](CC[C@H](O)c2ccc(F)cc2)[C@@H](c2ccc(O)cc2)N1c1ccc(F)cc1 [Ezetimibe] | 0.779 |
| c1cc(-c2cnn3cc(-c4ccc(OCCN5CCCCC5)cc4)cnc23)ccn1 [Dorsomorphin] | 0.979 |
| c1cc(-c2cnn3cc(-c4ccc(OCCN5CCCCC5)cc4)cnc23)ccn1 [Dorsomorphin dihydrochloride] | 1.12 |
| CC1=C(/C=C/C(C)=C/C=C/C(C)=C/C(=O)Nc2ccc(O)cc2)C(C)(C)CCC1=O [4-Oxofenretinide] | 1.06 |
| CCCNc1nc(NCCC)nc(N(C)OC)n1 | 0.945 |
| FC(F)(F)c1ccc(CNc2ccc(Cc3c[nH]c4ncc(Cl)cc34)cn2)cc1 | 1.03 |
| COC(=O)/C=C/c1ccc(O)c(OC)c1 | 1.17 |
| Cc1cnc(C(=O)NCCc2ccc(S(=O)(=O)NC(=O)NC3CCCCC3)cc2)cn1 [Glipizide] | 0.742 |
| Cc1cc(-c2ncc(CC(=O)Nc3ccc(-c4cnccn4)cn3)cc2C)ccn1 | 0.892 |
| O=C(O)COCCN1CCN([C@H](c2ccccc2)c2ccc(Cl)cc2)CC1 [Levocetirizine] | 0.917 |
| COc1ncc(-c2ccc3nccc(-c4ccnnc4)c3c2)cc1NS(=O)(=O)c1ccc(F)cc1F [Omipalisib] | 0.261 |
| CN1CCC(=C2c3ccccc3CCc3sccc32)CC1 [Pizotifen] | 1.04 |
| CN1CCC(=C2c3ccccc3CCc3sccc32)CC1 [Pizotifen Malate] | 1.05 |
| COc1cc2ncnc(Oc3ccc(CC(=O)Nc4cnn(C(C)C)c4)cc3)c2cc1OC | 1.13 |
| CCCCCOC(=O)Nc1nc(=O)n([C@@H]2O[C@H](C)[C@@H](O)[C@H]2O)cc1F [Capecitabine] | 0.98 |
| CC(C)=CCC/C(C)=C/CC/C(C)=C/CSc1ccccc1C(=O)O [Salirasib] | 1.01 |
| C[C@]1(COc2ccc(N3CCC(Oc4ccc(OC(F)(F)F)cc4)CC3)cc2)Cn2cc([N+](=O)[O-])nc2O1 [Delamanid] | 0.956 |
| CCN(CC)CCOc1ccc(C(=C(Cl)c2ccccc2)c2ccccc2)cc1 [Clomifene citrate] | 1.01 |
| COc1ccc(CC(=O)NC(/N=C(\NC#N)Nc2cccc3ncccc23)C(C)(C)C)cc1OC (stereo unspecified) | 0.985 |
| O=C(O)C1(C(=O)O)CCC1.[NH2-].[NH2-].[Pt+2] [Carboplatin] | 1.13 |

| SMILES | cell viability |
| --- | --- |
| O=C(c1cncc(Br)c1)N1CCC(N2CCCC2)CC1 | 0.968 |
| O=C(Nc1ccc([N+](=O)[O-])cc1O)Nc1ccccc1Br | 1.05 |
| COc1ccc(C2=N[C@H](c3ccc(Cl)cc3)[C@H](c3ccc(Cl)cc3)N2C(=O)N2CCNC(=O)C2)c(OC(C)C)c1 [Nutlin-3b] | 1.06 |
| CN(C)CCCOc1ccc(-c2ccc3ncc4c(c3c2)n(C2CCOCC2)c(=O)n4C)cn1 | 0.878 |
| O=c1c(O)c(-c2ccc(O)c(O)c2)oc2cc(O)cc(O)c12 [Quercetin] | 1.01 |
| O=C(O)c1cc(I)ccc1NC(=O)[C@H](Cc1ccccc1)NCc1ccccc1 | 1.14 |
| O=C(OCCOCCO)c1ccccc1Nc1cccc(C(F)(F)F)c1 [Etofenamate] | 1.1 |
| COCCc1ccc(OCC(O)CNC(C)C)cc1 (stereo unspecified) [Metoprolol Succinate] | 0.902 |
| COCCc1ccc(OCC(O)CNC(C)C)cc1 (stereo unspecified) [Metoprolol tartrate] | 1.07 |
| CCN1CCN(Cc2ccc(Nc3ncc(F)c(-c4cc(F)c5nc(C)n(C(C)C)c5c4)n3)nc2)CC1 | 0.839 |
| CCN1CCN(Cc2ccc(Nc3ncc(F)c(-c4cc(F)c5nc(C)n(C(C)C)c5c4)n3)nc2)CC1 [Abemaciclib] | 0.92 |
| Nc1nc2[nH]cc(CCc3ccc(C(=O)N[C@@H](CCC(=O)O)C(=O)O)cc3)c2c(=O)[nH]1 [Pemetrexed Disodium Hydrate] | 0.672 |
| CC(C)Cc1ccc(C(C)C(=O)O)cc1 (stereo unspecified) [Ibuprofen] | 0.909 |
| OCc1ccccn1 [2-(Hydroxymethyl)pyridine] | 1.12 |
| CN(C(=O)c1c(O)c2ccccc2n(C)c1=O)c1ccccc1 [Roquinimex] | 1.11 |
| COC(=O)[C@]12CCC(C)(C)C[C@H]1[C@H]1C(=O)C=C3[C@@]4(C)C=C(C#N)C(=O)C(C)(C)[C@@H]4CC[C@@]3(C)[C@]1(C)CC2 [Bardoxolone Methyl] | 0.967 |
| COc1cc2ncnc(Nc3ccc(F)c(Cl)c3)c2cc1OCCCN1CCOCC1 [Gefitinib] | 0.881 |
| CN1CCN(c2nc(C3=C(c4c[nH]c5ccccc45)C(=O)NC3=O)c3ccccc3n2)CC1 [Sotrastaurin] | 0.997 |
| CC(C(=O)O)c1ccc(C(=O)c2cccs2)cc1 (stereo unspecified) [Suprofen] | 1.04 |
| O=C(c1ccc(OCCCc2c[nH]cn2)cc1)C1CC1 [Ciproxifan] | 0.917 |
| CCOc1ccc(NC(C)=O)cc1 [Phenacetin] | 1.03 |
| CN1CCC[C@@H]1CCO[C@](C)(c1ccccc1)c1ccc(Cl)cc1 [Clemastine fumarate] | 1.19 |

| SMILES | cell viability |
| --- | --- |
| CC[N+](CC)(CC)CCOc1cccc(OCC[N+](CC)(CC)CC)c1OCC[N+](CC)(CC)CC [Gallamine triethiodide] | 1.05 |
| CC(C)(C)NCC(O)c1cc(O)cc(O)c1 (stereo unspecified) [Terbutaline Sulfate] | 0.827 |
| COc1cc2ncnc(Nc3ccccc3)c2cc1OC | 0.886 |
| CN(C)CCCCC(=O)Nc1ccc(NC(=S)NC(=O)c2ccc(C(C)(C)C)cc2)cc1 [Tenovin-6] | 0.905 |
| O=c1cc(-c2ccc(O)cc2)oc2cc(O)c(O)c(O)c12 [Scutellarein] | 0.904 |
| C=C(c1ccc(C(=O)O)cc1)c1cc2c(cc1C)C(C)(C)CCC2(C)C [Bexarotene] | 0.906 |
| CCc1oc2ccccc2c1C(=O)c1cc(Br)c(O)c(Br)c1 [Benzbromarone] | 1.1 |
| Cn1cc(-c2ccc(S(=O)(=O)n3ccc(/C=C/C(=O)Nc4ccccc4N)c3)cc2)cn1 [4SC-202 tosylate] | 0.942 |
| O=c1[nH]nc(Sc2ncc([N+](=O)[O-])s2)n1-c1ccc2c(c1)OCCO2 | 0.97 |
| NCc1ccc(S(N)(=O)=O)cc1 [Mafenide hydrochloride] | 1.03 |
| Cc1c[nH]c(/C=C2\C(=O)Nc3ccccc32)c1CCC(=O)O | 0.947 |
| CCOC(=O)c1[nH]c2cc(Cl)ccc2c1C(C(=O)NC(C)(C)C)N(C=O)Cc1ccc(Cl)cc1 (stereo unspecified) | 1.07 |
| O=C1Nc2ccccc2/C1=C/c1ccc(F)cc1 | 1.04 |
| CC(COc1ccccc1)NC(C)C(O)c1ccc(O)cc1 (stereo unspecified) [Isoxsuprine hydrochloride] | 0.996 |
| CC(C)(C)c1ccc(C(O)CCCN2CCC(C(O)(c3ccccc3)c3ccccc3)CC2)cc1 (stereo unspecified) [Terfenadine] | 0.871 |
| Cc1ccc2c(=O)c3cccc(CC(=O)O)c3oc2c1C | 1.01 |
| C=C1/C(=C\C=C2/CCC[C@]3(C)[C@@H]([C@H](C)/C=C/[C@H](C)C(C)C)CC[C@@H]23)C[C@@H](O)C[C@@H]1O [Doxercalciferol] | 0.866 |
| CC(C(=O)O)c1ccc2c(c1)CC(=O)c1ccccc1S2 (stereo unspecified) [Zaltoprofen] | 1.09 |
| CN(C)c1ccc(C(=C2C=CC(=[N+](C)C)C=C2)c2ccc(N(C)C)cc2)cc1 [Crystal Violet] | 0.901 |
| CC(=O)[C@H]1CC[C@H]2[C@@H]3CC=C4C[C@@H](O)CC[C@]4(C)[C@H]3CC[C@]12C [Pregnenolone] | 0.951 |
